Out of some 52,000 compounds screened, about 1,700 (3.3%) were called active. Cut-off read from the data, not from the text of the source: active = survival mostly below about 52% (no sharp cut-off); inactive = mostly above about 56%. Some of the results follow.

This experiment concerns Wild type. Briefly: growth inhibition of S. aureus wild type versus tarO mutant, primary screen, teichoic acid synthesis inhibitors, RN4220, OD600 (AID 463173). The following applies: S. aureus RN4220 wild type/DeltatarO growth, OD600, 18 h, stronger effect = lower value, screened at 18.75 µg/mL (by protocol).
Turning to `O=C(C1CC1)N1CCc2cc(Br)cc(S(=O)(=O)Nc3ccc(F)c(F)c3)c21`, the survival is inactive: 142%.

As for `Cc1cc(C)cc(N2CCn3c2nc2c3c(=O)n(Cc3c(F)cccc3Cl)c(=O)n2C)c1`, the survival is inactive: 86%. The same measure for `CCc1ccc2oc(-c3ccc(C)c(NC(=O)Cc4ccccc4)c3)nc2c1`: inactive: 143%; for `O=C(Cn1c(=O)c(CNc2ccccc2)cc2cc3c(cc21)OCCO3)Nc1ccccc1Cl`: inactive: 129%.

As for `CC(C)(C)OC(=O)N1CCC(c2c(C(=O)NCCN3CCOCC3)cnn2-c2cccc(Cl)c2)CC1`, the survival is inactive: 76%. The same measure for `Cn1c(=O)c2c(nc(CN3CCN(c4ccccc4F)CC3)n2Cc2ccc(F)cc2)n(C)c1=O`: inactive: 76%; for `COc1ccc(Cl)cc1N(C(C)=O)c1nc(C)cc(C)c1C#N`: inactive: 102%. The same measure for `Cc1nn(C)c2c1c(C(F)(F)F)cc(=O)n2Cc1ccc(Br)cc1F`: inactive: 75%; for `O=c1c(S(=O)(=O)c2ccccc2)cn(Cc2ccccc2)c2cc(N3CCCC3)c(F)cc12`: inactive: 97%.

As for `CCOc1ccc(N(Cc2ccccc2)C(=O)c2nc(SC)ncc2Cl)cc1`, the survival was inactive: 88%. Take `Cc1cc(C)cc(C(=O)NCCc2sc(-c3ccc(F)cc3)nc2C)c1`: the survival is inactive: 84%. In the case of `Cc1cccc(NC(=O)CSc2nc3n[nH]c(C)c3c(=N)n2-c2cccc(Cl)c2)c1`, the survival was active: 14%. The same measure for `COc1ccc(Cl)cc1N/C=C(/C#N)c1nc2ccccc2n1C`: inactive: 108%; for `COc1ccc(OC)c(C2CC(=O)Nc3c2c(=O)[nH]c2nc4ccccc4n32)c1` (centres undefined): inactive: 155%. `CCOC(=O)C1CCN(CCC(=O)Nc2ccccc2OC)CC1`: the survival is inactive: 86%. For the compound `N#Cc1ccc(NC(=O)COCc2cc(-c3ccco3)on2)cc1`, the survival was inactive: 91%.

With `COc1cc(CNC(=O)c2ccc3nc(Cc4ccccc4)oc3c2)cc(OC)c1OC`, the survival was inactive: 148%. The same measure for `COc1ccc(-c2c(C)c3cc(OC(=O)N4CCOCC4)ccc3oc2=O)cc1OC`: inactive: 60%; for `CC(CNC(=O)c1ccc(Cn2c(=O)c3cccn3c3cccnc32)cc1)c1ccccc1` (centres undefined): inactive: 80%; for `CNC(=O)C(C)SCc1ccccc1` (centres undefined): inactive: 102%.

As to `NC(=O)Cn1c(=O)n(CCCCCC(=O)NCc2ccc3c(c2)OCO3)c(=O)c2sccc21`, the survival is inactive: 91%. The same measure for `COc1cccc(C(=O)CC2(O)C(=O)N(Cc3ccccc3)c3ccccc32)c1` (centres undefined): inactive: 126%; for `Cc1ccccc1C(=O)Nc1sc2c(c1C(=O)N1CCC(C)CC1)CCC(C)C2` (centres undefined): active: 0%.

Regarding `CCOc1cc2[nH]c(=O)n(CCCCC(=O)N3CCN(c4ccccc4OC)CC3)c(=O)c2cc1OCC`, the survival is inactive: 64%.

As for `C=CCn1c(SCc2cccnc2)nnc1-c1ccncc1`, the survival was inactive: 104%. The same measure for `COc1cccc(Cn2nnc(C(=O)NCc3ccc(Cl)cc3Cl)c2N)c1`: inactive: 90%; for `CCc1cccc(NC(=O)Cn2c(=O)n3nc(-c4cccc(F)c4)nc3c3ccccc32)c1`: inactive: 64%.

As for `Cc1cn2c(=O)cc(COC(=O)c3ccc(NC(=O)c4ccccc4C)cc3)nc2s1`, the survival is inactive: 75%. The same measure for `COc1ccc2c(c1)c1c(c(=O)n(-c3ccc(OC)c(OC)c3)c(=O)n1Cc1ccc(F)cc1)n2C`: inactive: 71%; for `Cc1ccccc1CS(=O)(=O)Cc1ccc(C(=O)NCCc2ccc(Cl)cc2)o1`: inactive: 88%; for `CCOC(=O)C1CCCN(c2c(C(=O)c3ccccc3)cnc3ccc(F)cc23)C1` (centres undefined): inactive: 22%.

Regarding `CCOC(=O)N1CCC(NC(=O)c2cnn(-c3ccc(OC)cc3)c2C2CCN(C(=O)OC(C)(C)C)CC2)CC1`, the survival is inactive: 56%.

Take `Cc1ccccc1NC(=O)COc1ccc2oc3c(c2c1)CCCC3`: the survival was inactive: 135%. The same measure for `Cc1ccc(Cn2c(=O)n(-c3cccc(C(F)(F)F)c3)c(=O)c3c(C)c(C)sc32)c(C)c1`: inactive: 86%. The same measure for `Cc1ccc(CSc2ncc(Cl)c(C(=O)Oc3ccccc3F)n2)cc1`: inactive: 90%; for `Cc1cn(C)c(CC(=O)Nc2cccc(C#N)c2)c1C(=O)O`: inactive: 76%; for `O=C(CN1C(=O)COc2ccc(S(=O)(=O)N3CCCCCC3)cc21)N1CCN(c2ccc(F)cc2)CC1`: inactive: 86%.

As for `COc1ccc(-c2cc3nc(C)c(CCC(=O)NCCc4ccc(Cl)cc4)c(C)n3n2)c(OC)c1`, the survival is inactive: 97%. The same measure for `Cc1ccc(Cn2c(=O)c3cccnc3n(Cc3ccc(C)cc3)c2=O)cc1`: inactive: 100%; for `Cc1ccc(-c2nn3c(=O)cc(CN4CCN(C(=O)Nc5cccc(C(F)(F)F)c5)CC4)nc3s2)cc1`: inactive: 72%. `C=CCn1c(SC(C)C)nc2sc3c(c2c1=O)CCCC3`: the survival is inactive: 108%. The same measure for `Cc1ccccc1OCCn1cc(C(=O)c2ccco2)c2ccccc21`: inactive: 34%; for `O=C(Oc1ccc2c(=O)c(Cl)coc2c1)c1cccnc1`: inactive: 95%; for `COc1ccc(OC)c(C2CC(=O)c3c([nH]c(C(=O)OCc4ccc(C)cc4)c3C)C2)c1` (centres undefined): inactive: 84%. The same measure for `Clc1ccc(-c2noc3ncnc(NC4CCCCC4)c23)cc1`: inactive: 20%; for `Cc1ccc(CCNC(=O)c2cnc3c(-c4ccc(F)cc4)c(C)nn3c2C)cc1`: inactive: 134%; for `O=C(CCn1c(=O)c2ccccc2n(Cc2cccc(F)c2)c1=O)NCc1ccc2c(c1)OCO2`: inactive: 109%. The same measure for `CCOc1ccc(CN2CCN(Cc3ccc4c(c3)c3ccccc3n4CC)CC2)cc1`: active: -1%; for `CCOC(=O)C1=C(C)NC(=O)NC1c1c(O)ccc2ccccc12` (centres undefined): inactive: 111%. For `CCc1nn(CC(=O)NCc2ccc(C)cc2)c(=O)c2cc3occc3n12`, the survival is inactive: 128%.

As to `CCOc1ccc(C(=O)/C=C/c2cn(CC(O)CN3CCc4ccccc43)c3ccccc23)cc1` (centres undefined), the survival was inactive: 69%. Take `Cc1ccc(-c2c(C(=O)N3CCN(c4ccc(F)cc4)CC3)oc(=O)c3ccccc23)cc1`: the survival is inactive: 124%. For the compound `Cc1cc(C)cc(N2C(=O)N(Cc3cc(=O)n4ccccc4n3)c3ccccc3S2(=O)=O)c1`, the survival was inactive: 127%. For the compound `COc1cc(OC)c(OC)cc1CN1CCc2nc(N3CCN(C)CC3)ncc2C1`, the survival is inactive: 82%. The same measure for `COc1ccc(N2CCN(c3nc4ccc(C(=O)c5ccccc5)cc4n4cnnc34)CC2)cc1`: inactive: 73%; for `Cc1cccc2c1-c1sc(C(=O)NCCCN3CCN(c4ccccc4F)CC3)cc1CO2`: inactive: 84%; for `COc1ccc(CNC(=O)Cc2coc3ccc(C)cc23)cc1`: inactive: 112%.

On to `Cc1ccc(NC(=O)c2oc3ccc(S(=O)(=O)N4CCOCC4)cc3c2C)c(C)c1`, for which the survival is inactive: 140%. Regarding `O=C(CCS(=O)(=O)c1nc(-c2ccc3c(c2)OCO3)cc(C(F)(F)F)n1)Nc1ccc(Br)cc1`, the survival is inactive: 88%. The same measure for `COc1ccc(NC(=O)Cc2c(C(=O)O)[nH]c3ccccc23)cc1OC`: inactive: 83%; for `NC(=O)CSc1nnc2c(n1)CCCC2`: inactive: 112%; for `COC(=O)c1cccnc1-n1c(=O)c2cccnc2n(CC(=O)Nc2cccc(C)c2)c1=O`: inactive: 134%. The same measure for `O=C1CC(c2c(F)cccc2Cl)c2c(ccc3ccccc23)N1` (centres undefined): inactive: 78%. As to `COc1cc(C2c3c(oc4ccc(F)cc4c3=O)C(=O)N2Cc2ccc3c(c2)OCO3)ccc1O` (centres undefined), the survival was inactive: 95%.

Consider `CCCCN(CC)C(=O)c1c[nH]c2ccc(S(=O)(=O)N(C)c3ccc(Cl)cc3)cc2c1=O`, for which the survival is inactive: 66%. The same measure for `COc1ccc(C(=O)Nc2ccc3nc4c(c(Nc5ccccc5OC)c3c2)CCCC4)c(OC)c1`: inactive: 63%; for `CC(C)Oc1ccc(CNC(=O)c2ccc3c(c2)nc2n3CCOC2)cc1`: inactive: 59%. The same measure for `COc1cc(NC(=O)N2CCSc3ccccc32)cc(OC)c1OC`: inactive: 64%; for `CCN(c1ccccc1C)S(=O)(=O)c1nnc(NC(=O)c2ccccc2C)s1`: inactive: 26%; for `CCOc1ccc(OCC)c(NC(=O)C2CCCN(S(=O)(=O)c3cc(Br)cc4c3N(C(=O)CC)CC4)C2)c1` (centres undefined): inactive: 94%. The same measure for `Cc1nc2nc(C)c(NS(=O)(=O)c3ccc(CC(C)C)cc3)c(=O)n2[nH]1`: inactive: 84%. With `CCCc1nnc(NC(=O)Nc2ccccc2Cl)s1`, the survival is inactive: 120%. The same measure for `CCOC(Cn1ccc(=O)[nH]c1=O)OCC`: inactive: 108%; for `S=C(c1ccncc1)N1CCOCC1`: inactive: 106%; for `Cc1nn(C(=O)c2c(F)cccc2F)c(C)c1S(=O)(=O)N1CCCCCC1`: inactive: 82%.

On to `CCn1c(CN2CCOCC2)nc2cc(NC(=O)c3cccc([N+](=O)[O-])c3)ccc21`, for which the survival was inactive: 82%. Take `COc1ccc(N=Nc2c(N)n[nH]c2N)cc1`: the survival is active: 2%. The same measure for `Cc1c(CCC(=O)O)c(=O)[nH]c2ccccc12`: inactive: 116%; for `COc1ccc(NC(=O)Cn2cc(C(=O)c3ccccc3OC)c(=O)c3ccc(C)nc32)cc1OC`: inactive: 85%; for `Cc1ccc(CN2CCC(CNC(=O)Nc3ccc(C)c(C)c3)C2)cc1` (centres undefined): inactive: 94%.

Turning to `O=C(CN1C(=O)C2C3C=CC(C3)C2C1=O)NCc1ccco1` (centres undefined), the survival is inactive: 108%. As to `CC(=O)Nc1nnc2n1CCS2`, the survival was inactive: 54%. The same measure for `COc1ccc(C)cc1NC(=O)c1nnn(-c2c(C)cccc2C)c1C`: inactive: 93%. The same measure for `CCOC(=O)c1ccc(N2CCN(c3cc(C)ccc3C)CC2)c(NC(=O)Nc2ccc(Cl)cc2)c1`: inactive: 56%; for `Cc1ccc(C)c(NC(=O)/C(C#N)=C/c2ccc(C(C)C)cc2)c1`: inactive: 77%; for `COc1ccc(C)cc1NC(=O)c1oc2ccc(S(=O)(=O)N3CCC4(CC3)OCCO4)cc2c1C`: inactive: 86%. The same measure for `CCOc1ccc(C2C(C(=O)Nc3ccccc3C)=C(C)Nc3nnnn32)cc1` (centres undefined): inactive: 63%; for `CC(C)N(C(=O)Cn1cc(SCC(=O)Nc2ccccc2C(F)(F)F)c2ccccc21)C(C)C`: inactive: 105%. On to `Cc1ccc(-c2nc(CCNC(=O)C(=O)Nc3c(C)cccc3C)cs2)cc1`, for which the survival is active: 0%.

The values above are taken from PubChem BioAssay AID463173 (ICCB-Longwood Screening Facility, Harvard Medical School, 2010).
